Reference: PubChem BioAssay AID504339 (National Center for Advancing Translational Sciences (NCATS), 2011)
About 17,000 (4.4%) of roughly 390,000 compounds were called active. Inconclusive results, whose numbers are uncertain, are shown with a selection of clear calls. Calls follow the shape of the dose curve; as a rule, active = well fitted inhibition curve with a large enough effect; inconclusive = small, poorly fitted or top-dose-only effect; inactive = no such curve, though single readings can be large or run the other way. A potency beside an inconclusive call is a rough fit, not a confirmed value.

These molecules were tested against Lysine-specific demethylase 4A (Homo sapiens) (UniProt O75164) (assay: qHTS Assay for Inhibitors of JMJD2A-Tudor Domain). Details: AlphaScreen JMJD2A-Tudor / H3K4me3 peptide binding; activity change, negative = inhibition: at 114 µM (top of the series).
UniProt O75164, sequence (O75164 whole entry, looked up, the tested form may be a part): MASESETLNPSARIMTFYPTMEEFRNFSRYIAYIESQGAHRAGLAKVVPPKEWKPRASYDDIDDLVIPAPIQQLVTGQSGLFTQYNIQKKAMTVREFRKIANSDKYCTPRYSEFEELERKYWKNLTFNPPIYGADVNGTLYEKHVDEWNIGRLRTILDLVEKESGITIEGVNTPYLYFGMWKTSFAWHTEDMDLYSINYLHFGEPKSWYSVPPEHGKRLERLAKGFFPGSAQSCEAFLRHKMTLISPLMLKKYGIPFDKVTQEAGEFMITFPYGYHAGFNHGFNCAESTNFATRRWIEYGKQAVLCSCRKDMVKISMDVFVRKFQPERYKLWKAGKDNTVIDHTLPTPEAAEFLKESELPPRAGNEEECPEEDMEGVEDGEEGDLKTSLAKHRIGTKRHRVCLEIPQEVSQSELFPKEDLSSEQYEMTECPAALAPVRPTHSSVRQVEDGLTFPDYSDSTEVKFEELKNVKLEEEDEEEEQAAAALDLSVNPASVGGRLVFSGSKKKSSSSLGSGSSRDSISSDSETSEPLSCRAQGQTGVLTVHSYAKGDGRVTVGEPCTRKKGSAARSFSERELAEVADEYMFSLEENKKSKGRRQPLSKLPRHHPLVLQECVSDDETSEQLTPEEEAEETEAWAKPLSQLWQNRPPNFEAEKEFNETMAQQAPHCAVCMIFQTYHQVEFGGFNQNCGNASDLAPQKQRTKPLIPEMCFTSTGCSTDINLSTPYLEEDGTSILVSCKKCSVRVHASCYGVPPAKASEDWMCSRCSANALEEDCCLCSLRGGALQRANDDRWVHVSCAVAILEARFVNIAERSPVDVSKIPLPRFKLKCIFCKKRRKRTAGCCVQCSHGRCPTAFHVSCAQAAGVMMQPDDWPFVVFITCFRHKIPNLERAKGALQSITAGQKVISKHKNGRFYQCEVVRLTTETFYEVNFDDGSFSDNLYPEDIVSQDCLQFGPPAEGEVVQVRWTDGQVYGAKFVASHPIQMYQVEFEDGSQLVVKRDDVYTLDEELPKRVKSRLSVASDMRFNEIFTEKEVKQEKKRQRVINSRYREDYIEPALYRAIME
% is scaled to controls: 0 for no effect and ±100 for the full control effect; potency is read from the fitted curve at half-maximal effect; tags tell the direction and shape of the fitted curve.
Also: nearly all actives have a fitted effect of over 50% in size.

Row | Structure (SMILES) | Potency | activity change, negative = inhibition
1 | CC(C)(C)n1nnnc1C(c1ccncc1)N1CCN(c2ccc(O)cc2)CC1 (centres undefined) | active: 44.7 µM | –
2 | CN(C(=S)NCCN1CCOCC1)C(c1ccccc1)c1ccccc1 | active: 10 µM | –
3 | Cc1cccc(NC(=O)CNC(=O)Cn2ncc(Cl)c(Cl)c2=O)c1C | active: 44.7 µM | –
4 | O=c1[nH]c(-c2ccccn2)nc(C(F)(F)F)c1Br | active: 17.8 µM | –
5 | COc1ccc(N2CCN(C(CNC(=O)C(=O)NCCCn3ccnc3)c3cccnc3)CC2)cc1 (centres undefined) | active: 44.7 µM | –
6 | Cc1ccc(OCCC(=O)Nc2ccc(F)c(Cl)c2)cc1 | inactive | –
7 | O=C(CN1C(=O)COc2ccc(S(=O)(=O)N3CCCCCC3)cc21)N1CCN(c2ccccc2)CC1 | inconclusive: 12.6 µM [inhibitor, full curve, poor fit] | –
8 | O=C(O)c1ccccc1C=NN=C1c2ccccc2-c2ccccc21 | inconclusive: 39.8 µM [inhibitor, full curve] | –
9 | CCOc1ccc(N2C(=O)CC(NCCc3ccncc3)C2=O)cc1 (centres undefined) | inconclusive: 79.4 µM [inhibitor, single point] | –
10 | c1coc(-c2nn3c(-c4ccco4)nnc3s2)c1 | inconclusive: 56.2 µM [inhibitor, partial curve] | –
11 | CCOC(=O)C1=C(c2ccc(OC)cc2)C(=O)c2ccccc2C1=O | active: 39.8 µM | –
12 | CCOC(=O)CSc1nnc(C)c(=O)[nH]1 | inactive | –
13 | COc1cccc(CNc2ccc3c(c2)ncn3C)c1OC | inconclusive: 44.7 µM [inhibitor, partial curve] | –
14 | C/C(CCC12CC3CC(CC(C3)C1)C2)=N\NC(N)=S | inconclusive: 35.5 µM [inhibitor, full curve, poor fit] | –
15 | O=C(NCc1ccccc1Br)c1ccc(-n2cnc3cccnc32)cc1 | inconclusive: 56.2 µM [inhibitor, partial curve] | –
16 | COc1ccc(-c2[nH]ncc2/C=N\NC(=O)c2ccc(C(C)(C)C)cc2)cc1OC | inconclusive: 79.4 µM [inhibitor, single point] | –
17 | COc1ccc(CCNc2ccc(N3C(=O)CC(C)C3=O)cc2[N+](=O)[O-])cc1 (centres undefined) | inconclusive: 11.2 µM [inhibitor, full curve, poor fit] | –
18 | O=C(Nc1ccccc1)c1ccc(S(=O)(=O)NCc2ccco2)cc1 | inactive | –
19 | CCN1CCCC1CNC(=O)C1CCN(C(=O)c2cc3sccc3n2Cc2ccc(F)cc2)CC1 (centres undefined) | inactive | –
20 | CCN(CC)CCNc1nc(-c2ccc(OC)cc2)c(-c2ccc(OC)cc2)s1 | inconclusive: 56.2 µM [inhibitor, partial curve] | –
21 | CC(C)(C)c1cc(NCCCn2ccnc2)n2ncc(-c3ccccc3)c2n1 | inconclusive: 63.1 µM [inhibitor, partial curve, poor fit] | –
22 | NC(=O)Cc1nc(-c2ccc([N+](=O)[O-])cc2)cs1 | inactive | –
23 | O=C(NC1(C(F)(F)F)Oc2ccccc2O1)N1CCCC1 | inconclusive: 89.1 µM [inhibitor, single point] | –
24 | CSc1ccccc1NC(=O)CCS(=O)(=O)c1nc(-c2cccs2)cc(C(F)(F)F)n1 | active: 22.4 µM | –
25 | O=C(NCc1ccccn1)c1ccc(=O)oc1 | active: 8.91 µM | –

Row | Structure (SMILES) | Potency | activity change, negative = inhibition
26 | Cc1ccc(-c2cn3c4c(=O)n(C)c(=O)n(C)c4nc3n2-c2cccc(Cl)c2)cc1 | inactive | –
27 | Cc1ccc(S(=O)(=O)N2CCN(C(=O)COC(=O)/C=C/c3ccc(OC(F)F)cc3)CC2)cc1 | inactive | –
28 | O=C(NNc1ccccc1[N+](=O)[O-])Nc1ccc(F)cc1F | inactive | –
29 | O=C(N/N=C/c1cc([N+](=O)[O-])cc([N+](=O)[O-])c1O)/C(=C\c1cccs1)NC(=O)c1ccccc1 | inconclusive: 56.2 µM [inhibitor, partial curve] | –
30 | O=C(COC(=O)Cn1nnc2ccccc21)Nc1ccccc1Br | inconclusive: 100 µM [inhibitor, partial curve, poor fit] | –
31 | C/C(=N\Nc1ncc(Cl)cc1Cl)c1ccccn1 | – | inconclusive: -97.1% [inhibitor]
32 | CCOC(=O)C(C)Sc1nnc(Cc2cc(=O)[nH]c(=O)[nH]2)n1-c1ccc(Cl)cc1 (centres undefined) | inconclusive: 25.1 µM [inhibitor, full curve] | –
33 | Cc1ccccc1C(=O)Nc1nnc(S(=O)(=O)N2CCCc3ccccc32)s1 | inactive | –
34 | Cc1cccc(-c2cc(NC(=O)COc3ccccc3F)n(-c3ccccc3)n2)c1 | inactive | –
35 | Cc1nnsc1C(=O)Oc1ccccc1Cl | inactive | –
36 | COc1ccccc1NC1=C(NC(C)=O)C(=O)c2ccccc2C1=O | inconclusive: 14.1 µM [inhibitor, single point] | –
37 | CC(C)[C@H](N)c1cn([C@@H](CC(N)=O)C(=O)N2CCNCC2)nn1 | inconclusive: 70.8 µM [inhibitor, partial curve] | –
38 | COc1ccc(CNC(=O)Cc2csc3nc(-c4ccc(F)cc4)cn23)cc1 | inactive | –
39 | O=C(CSc1ccc(-c2ccccn2)nn1)NCc1ccc(F)cc1 | active: 7.94 µM | –
40 | Cc1cccc(C(=O)NNS(=O)(=O)c2ccccc2)c1O | inconclusive: 28.2 µM [inhibitor, partial curve] | –
41 | CCCCOCCCNC(=O)CCCOc1ccccc1 | inconclusive: 39.8 µM [inhibitor, single point] | –
42 | C=C[C@@H]1c2ccccc2N(S(=O)(=O)c2ccc(C)cc2)[C@H](c2ccccc2C(F)(F)F)C1(C#N)C#N | inactive | –
43 | CCCCn1c(/N=C/c2c[nH]c3ccccc23)nc2ccccc21 | inconclusive: 39.8 µM [inhibitor, partial curve] | –
44 | COc1ccc(-c2nc(SCC(=O)NC3CCCC3)c(-c3ccc(C)cc3)[nH]2)cc1OC | inconclusive: 35.5 µM [inhibitor, partial curve] | –
45 | CC(C)N(C(=O)Cn1cc(SCC(N)=O)c2ccccc21)C(C)C | inconclusive: 56.2 µM [inhibitor, partial curve] | –
46 | Cc1ccc(S(=O)(=O)N2CCN(Cc3cc(C(C)(C)C)ccc3O)CC2)cc1 | inconclusive: 89.1 µM [inhibitor, partial curve] | –
47 | CC(C)CNC(=O)/C(C#N)=C1\N=C(NC(=O)c2ccco2)c2ccccc21 | inconclusive: 1.58 µM [inhibitor, full curve, poor fit] | –
48 | CC(C)c1c(O)ccc2c1CC[C@H]1C(C)(C)CCC[C@]21C | inconclusive: 44.7 µM [inhibitor, partial curve] | –
49 | COc1cc(C(O)CO)ccc1OS(=O)(=O)O (centres undefined) | inactive | –
50 | O=C1NN(c2ccccc2)C(=O)/C1=C\c1ccc2c(c1)OCO2 | inconclusive: 56.2 µM [inhibitor, single point] | –

Row | Structure (SMILES) | Potency | activity change, negative = inhibition
51 | COc1ccc(CNC(=O)CN(C(=O)CCC(=O)Nc2nccs2)c2cccc(C)c2)cc1 | inactive | –
52 | O=C(NCC(=O)N1CCN(S(=O)(=O)c2ccccc2)CC1)c1ccc(Br)o1 | inactive | –
53 | Nc1nncn1C(=O)c1cccs1 | inactive | –
54 | O=S(=O)(Nc1cccc(-c2cn3ccsc3n2)c1)c1ccc(F)cc1 | inconclusive: 100 µM [inhibitor, single point] | –
55 | Clc1cccc(N2CCN(CCNc3nc4ccccc4n4cnnc34)CC2)c1 | inconclusive: 31.6 µM [inhibitor, single point] | –
56 | Cc1ccc(NC(=O)CN2C(=O)COc3ccc(S(=O)(=O)NC4CCCC4)cc32)c(Cl)c1 | inactive | –
57 | CN1CCN(c2ccc(S(=O)(=O)N3CCOCC3)cc2NC(=O)COc2ccc(C#N)cc2)CC1 | inactive | –
58 | CSCC[C@H](NC(=O)COc1ccc(Cl)cc1)C(=O)N1CCC2(CC1)NCCc1[nH]cnc12 | inconclusive: 39.8 µM [inhibitor, full curve, poor fit] | –
59 | CCN(CC)c1ccc(NC(=O)CN2CCN(c3ccc(F)cc3)CC2)cc1 | inconclusive: 22.4 µM [inhibitor, full curve] | –
60 | Cc1oc2c(cc(NS(=O)(=O)c3ccc(Cl)cc3)c3ccccc32)c1C(=O)OCc1ccccc1 | inactive | –
61 | COc1cccc(/C=N/Nc2ncnc3scc(-c4ccccc4)c23)c1O | active: 44.7 µM | –
62 | Cn1c(=O)c2cc(C(=O)NC3CCCCCC3)sc2c2ccccc21 | inconclusive: 56.2 µM [inhibitor, partial curve] | –
63 | CCOC(=O)C1=C(C)N(C)C(=S)NC1c1ccc(Cl)cc1Cl (centres undefined) | inconclusive: 63.1 µM [inhibitor, single point] | –
64 | O=C(CS(=O)(=O)c1ccc(Cl)cc1)NCCS(=O)(=O)c1ccc(Cl)cc1 | inconclusive: 89.1 µM [inhibitor, single point] | –
65 | CCN(CC)Cc1c(O)ccc2occ(C(=O)c3ccccc3)c12 | inactive | –
66 | Cn1ccnc1C(O)c1cc(C(C)(C)C)c(O)c(C(C)(C)C)c1 (centres undefined) | inconclusive: 50.1 µM [inhibitor, partial curve] | –
67 | N/C(=N\OS(=O)(=O)c1ccc(Br)cc1)c1ccncc1 | inactive | –
68 | Cc1ccc(CN2CC(C(=O)Nc3cc(S(C)(=O)=O)ccc3Cl)CC2=O)cc1 (centres undefined) | inactive | –
69 | NS(=O)(=O)c1ccc(Nc2nc(-c3ccc4ccccc4c3)cs2)cc1 | inconclusive: 25.1 µM [inhibitor, full curve, poor fit] | –
70 | Clc1ccc(/C=N/N2CCN(Cc3ccccc3Cl)CC2)cc1 | active: 44.7 µM | –
71 | COc1ccccc1CN1CCNC(=O)C1=O | inactive | –
72 | O=C(/C=C/c1ccccc1)Nn1cnnc1 | inactive | –
73 | CC(C)(C)c1nnc(NC(=O)C2CC(=O)N(CCc3ccc(F)cc3)C2)s1 (centres undefined) | inactive | –
74 | CCN(CC)CCNC(=O)c1cc(Nc2ccc(OC)c(OC)c2)nc2ccccc12 | inconclusive: 44.7 µM [inhibitor, partial curve] | –
